Paper PMC4336329 (PLoS ONE, 2015)
Screen size: about 310,000 compounds; about 2,200 (0.71%) showed an effect of 50% or more. Effects have a minus sign here. The list shows a part of the results.

Biological target: human ether-à-go-go-related gene (hERG) potassium channel (human, UniProt Q12809)
Assay: primary screen, population patch clamp on CHO cells stably expressing hERG

human ether-à-go-go-related gene (hERG) potassium channel, sequence (Q12809 whole entry, looked up): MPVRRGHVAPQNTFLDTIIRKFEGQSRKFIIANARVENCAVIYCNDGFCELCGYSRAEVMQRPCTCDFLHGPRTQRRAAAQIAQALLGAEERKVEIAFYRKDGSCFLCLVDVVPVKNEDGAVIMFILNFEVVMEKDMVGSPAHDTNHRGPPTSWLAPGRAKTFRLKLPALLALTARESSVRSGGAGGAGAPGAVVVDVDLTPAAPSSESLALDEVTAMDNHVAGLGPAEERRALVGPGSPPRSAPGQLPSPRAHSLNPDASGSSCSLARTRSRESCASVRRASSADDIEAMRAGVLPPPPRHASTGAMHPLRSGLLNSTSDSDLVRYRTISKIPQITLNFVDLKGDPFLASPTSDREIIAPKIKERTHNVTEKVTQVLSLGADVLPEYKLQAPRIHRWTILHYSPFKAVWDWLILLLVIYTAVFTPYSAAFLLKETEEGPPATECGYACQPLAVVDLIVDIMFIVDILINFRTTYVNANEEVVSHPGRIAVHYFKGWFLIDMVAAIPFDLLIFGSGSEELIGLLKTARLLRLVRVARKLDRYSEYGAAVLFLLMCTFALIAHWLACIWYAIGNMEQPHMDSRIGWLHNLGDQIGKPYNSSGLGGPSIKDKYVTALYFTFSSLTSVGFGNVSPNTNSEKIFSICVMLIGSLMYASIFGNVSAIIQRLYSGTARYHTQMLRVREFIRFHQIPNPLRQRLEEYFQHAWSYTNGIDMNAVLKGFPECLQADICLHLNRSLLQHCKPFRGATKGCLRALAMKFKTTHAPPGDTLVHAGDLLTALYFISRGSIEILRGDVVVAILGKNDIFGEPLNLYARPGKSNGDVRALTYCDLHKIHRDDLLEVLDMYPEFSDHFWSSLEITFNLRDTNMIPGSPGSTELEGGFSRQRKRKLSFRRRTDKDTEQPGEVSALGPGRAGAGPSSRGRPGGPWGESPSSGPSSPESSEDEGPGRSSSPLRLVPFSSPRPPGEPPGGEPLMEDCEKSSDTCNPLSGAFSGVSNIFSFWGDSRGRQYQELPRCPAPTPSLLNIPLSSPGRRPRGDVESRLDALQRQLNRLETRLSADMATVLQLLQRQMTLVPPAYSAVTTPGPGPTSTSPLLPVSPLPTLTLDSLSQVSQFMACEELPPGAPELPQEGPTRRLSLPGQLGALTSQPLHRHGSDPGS

Row | SMILES | hERG current change (%, negative = inhibition) at 1uM
1 | COc1ccc(OC)c(NC(=O)c2cnc(Nc3ccccc3OC)c3ccccc23)c1 | -3.53%
2 | CCn1c2ccccc2c2nn(C)c(=N)nc21 | -17.6%
3 | CCC1CCCCN1S(=O)(=O)c1ccc(C(=O)N(CCCN(C)C)c2nc3cc4c(cc3s2)OCO4)cc1.Cl (stereo not shown) | 15.1%
4 | CCc1nnc(NC(=O)CCN(c2ccc(C)cc2)S(=O)(=O)c2ccccc2)s1 | 17.6%
5 | CC(C)CNS(=O)(=O)c1ccc(CCC(=O)NCc2cccnc2)cc1 | 0.985%
6 | COc1ccc(CC(=O)Nc2c(C(=O)N3CCN(c4ncccn4)CC3)oc3ccccc23)cc1 | -21.4%
7 | COc1ccc(Cl)cc1NC(=O)CN(C)C(=O)C12CC3CC(CC(Cl)(C3)C1)C2 | 14.8%
8 | CN(C)CCNC(=O)c1ccc(CS(=O)(=O)c2ccc(Br)cc2)o1 | 3.84%
9 | Cc1c(C(=O)NC(C)c2ccncc2)oc2ccccc12 (stereo not shown) | -19.8%
10 | CC1CC(=O)NN=C1c1cccs1 (stereo not shown) | 3.75%
11 | CCc1ccc(C(C)NC(=O)C2(C)CC2(Br)Br)cc1 (stereo not shown) | 18%
12 | CSc1ccccc1NC(=O)Cc1ccc(Br)cc1 | 3.18%
13 | Brc1ccc2c(c1)CN1CCCC1=N2 | 5.54%
14 | FC(F)(F)c1ccc2c(c1)nnn2C1CCN(Cc2nnnn2Cc2ccccc2)CC1 | -32.4%
15 | CCN1C(=Nc2ccc(Cl)cc2)SC/C1=C\C(=O)OC | 4.11%
16 | Cc1ccc2c(c1)N(C(=O)CCC(=O)NCC(C)c1ccccc1)CC(C)O2 (stereo not shown) | -2.49%
17 | Cc1cccc(N2CCN(C(=O)c3c(-c4ccccc4)noc3C)CC2)c1C | 10.1%
18 | COc1ccccc1N1CCN(CC(=O)N2N=CCC2c2ccccc2)CC1 (stereo not shown) | 0.341%
19 | CCCCN1CCc2c([nH]c3c(C)cccc23)C1=O | -3.47%
20 | COc1ccc(CCn2c(O)c(/C=N/N3CCCCC3)c(=O)[nH]c2=O)cc1OC | 10.1%
21 | COc1ccccc1Nc1ccc(NC(=O)c2cccc([N+](=O)[O-])c2C)cc1 | 14.6%
22 | O=C(Nc1cccc(F)c1)C1CCN(S(=O)(=O)c2cnc[nH]2)CC1 | 17.7%

Row | SMILES | hERG current change (%, negative = inhibition) at 1uM
23 | Cc1nc2cc(NCc3ccc(Cl)cc3)ccc2n1C | -30.1%
24 | Cc1cc(C)cc(NC(=O)COC(=O)CCn2c(C)csc2=O)c1 | 5.96%
25 | CCc1ccc(OCCOCC(O)CN2CCN(Cc3ccc(Cl)cc3)CC2)cc1.Cl (stereo not shown) | -22.3%
26 | COc1ccc(N(CC(O)CN2CCOCC2)S(=O)(=O)c2ccc(C)cc2)cc1 (stereo not shown) | -6.48%
27 | COc1cc2c(cc1NC(=O)CSc1ccccc1)oc1ccccc12 | 20.6%
28 | CCCC(=O)Nc1c(-c2cccc(C)c2)c(=O)c2ccccc2n1C | 5.62%
29 | CC1CCN(C(=O)c2ccc(SCc3ccccc3F)c([N+](=O)[O-])c2)CC1 | 10.7%
30 | CCCN1C2=C(C(=O)CC(C)(C)C2)C(c2ccc(F)cc2)C2=C1c1ccccc1C2=O (stereo not shown) | -0.904%
31 | CCCOc1ccc(N2C(=O)CC(NCc3cccnc3)C2=O)cc1 (stereo not shown) | 6.06%
32 | CC(=O)Nc1ccc(Cc2ccncc2)cc1 | 9.37%
33 | C=CCC(=O)N1CCCC(C(=O)c2ccc(Cl)cc2)C1 (stereo not shown) | 12.4%
34 | O=C(COC(=O)C1(c2ccccc2)CC1)N1CCN(c2ccc(F)cc2)CC1 | -17.6%
35 | CCc1nc2oc3ccccc3c(=O)c2c(=O)n1CCOC | 5.93%
36 | O=c1ccc(-c2ccc(S(=O)(=O)NCc3cccc(Br)c3)s2)n[nH]1 | 2.87%
37 | Cc1noc(C)c1C(=O)OCC(=O)c1ccc[nH]1 | 7.61%
38 | COc1cccc2c1C(=O)c1c(O)c3c(c(O)c1C2=O)C[C@@](O)(C(=O)CO)C[C@@H]3O[C@H]1C[C@H](N)[C@H](O)[C@H](C)O1.Cl | 13.2%
39 | COc1ccc(/C=C(/NC(=O)c2ccc(OC)c(OC)c2)C(=O)NCCc2c[nH]c3ccccc23)cc1 | 7.12%
40 | CC(Cc1ccccc1)NCc1ccccc1O.Cl (stereo not shown) | 14.8%
41 | Cc1ccc(C(C)NC(=O)CSc2ccc(S(=O)(=O)N3CCOCC3)cn2)cc1C (stereo not shown) | 5.8%
42 | CN(C)CCCCOc1ccccc1F.O=C(O)C(=O)O | 6.04%
43 | Cc1ccc(C)c(N2CCN(C(=O)c3ccc4c(=O)n5c(nc4c3)CCCCC5)CC2)c1 | 1.76%
44 | COc1ccc(CC(=O)Nc2cccc(Cl)c2C)cc1S(=O)(=O)N1CCOCC1 | 6.04%

Row | SMILES | hERG current change (%, negative = inhibition) at 1uM
45 | CN(C)c1ncc(S(=O)(=O)c2ccccc2)c(-c2ccc(Cl)cc2Cl)n1 | 3.66%
46 | COc1ccc(N2C(=O)CC2(C#N)c2ccc(OCc3ccccc3)cc2)cc1 (stereo not shown) | -2.34%
47 | O=C(Nc1ccccc1Oc1ccccc1)c1cccc([N+](=O)[O-])c1 | 0.957%
48 | COc1ccc(N(C(=O)c2snc(C(N)=O)c2N)C(C(=O)NC2CCCC2)c2ccc(OC)c(OC)c2)cc1 (stereo not shown) | 12.4%
49 | COc1ccc(C(=O)N/N=C(\C)CC(=O)Nc2ccc3c(c2)OCCO3)c(OC)c1 | 12.8%
50 | O=C(CN1CCOCC1)Nc1ccccc1-c1ccccc1 | 8.59%
51 | Cc1nn(Cc2ccc(F)cc2)c(Cl)c1/C=N/NC(=O)c1cccnc1 | -5.67%
52 | Cc1nc2ccccc2n1C1CCN(C(=O)Nc2ccccc2)CC1 | -5.38%
53 | CC(=O)[C@@H]1[C@@H](C)N(Cc2ccccc2)C(=O)N[C@H]1c1cccc(C(F)(F)F)c1 | 11.1%
54 | COCCn1c(SCc2nc3scc(-c4ccc(Cl)cc4)c3c(=O)[nH]2)nnc1-c1cccc(C)c1 | 3.21%
55 | Cc1ccc(C)c(-n2cc(CN3CCCN(C=O)CC3)c(-c3ccccc3)n2)c1 | 7.15%
56 | CC(=O)Nc1ccc(S(=O)(=O)N(C)CCOCc2ccccc2)cc1 | 5.28%
57 | Cc1ccc(O)c(NC(=O)c2cccc(S(=O)(=O)N3CCCCC3)c2)c1 | -2.57%
58 | Cc1nn(C)cc1/C=N/NC(=S)Nc1ccccc1 | -3.63%
59 | CCOc1ccc(NC(=O)CCc2c(C)noc2C)cc1OC | 4.71%
60 | Cl.Nc1ccc2nc(Cc3ccccc3)[nH]c2c1 | 11%
61 | Cc1ccc(S(=O)(=O)NCc2ccccc2)cc1C(=O)N1CCCC(C(F)(F)F)C1 (stereo not shown) | 3.5%
62 | CCn1nnc(-c2ccccc2NS(=O)(=O)c2ccc(S(=O)(=O)N3CCCCCC3)cc2)n1 | 7.18%
63 | Cc1ccc(N2CC(C(=O)N3CCC4(CC3)CC(=O)c3ccccc3O4)CC2=O)cc1 (stereo not shown) | -47.4%
64 | Clc1ccc(Sc2cnc3ccccc3n2)cc1 | 9.45%
65 | COc1ccc(NC(=O)[C@@H](NC(=O)N2C[C@H]3C[C@@H](C2)c2cccc(=O)n2C3)C(C)C)cc1OC | 11%
66 | Cc1cc(S(=O)(=O)NCC(=O)O)ccc1F | -4.76%

Row | SMILES | hERG current change (%, negative = inhibition) at 1uM
67 | O=C(N/N=C\c1cc(Cl)ccc1O)c1ccc(S(=O)(=O)N2CCCCC2)cc1 | 0.646%
68 | CC(=O)Nc1ccc(S(=O)(=O)NCCNS(=O)(=O)c2ccc(NC(C)=O)cc2)cc1 | 11%
69 | CCOC(=O)N1CCN(C(=O)CN(C)S(=O)(=O)c2ccc(Cl)cc2)CC1 | 14.8%
70 | O=C(COc1ccc(S(=O)(=O)N2CCOCC2)cc1)Nc1ccccc1F | -0.935%
71 | Cc1ccc(NC(=O)c2cc(-c3ccccc3)n[nH]2)cc1 | 12.5%
72 | COc1ccc(CN(Cc2ccc(C(=O)O)cc2)C(=S)Nc2cc(C)cc(C)c2)cc1OC | 10.8%
73 | COCCN(CC1CCCN(C2Cc3ccccc3C2)C1)C(=O)CCC(N)=O (stereo not shown) | -70.8%
74 | O=C(O)CCNC(=O)c1cncc(Br)c1 | 7.47%
75 | COc1cc(Cl)c(C)cc1NC(=O)COC(=O)c1cc(SC)ccc1Cl | 13.2%
76 | CCOc1ccc(N(CC(=O)O)S(=O)(=O)c2ccc(F)cc2)cc1 | 8.33%
77 | CC1CC/C(=N/Nc2ccccc2)C(=O)N1 (stereo not shown) | 2.19%
78 | CCOC(=O)c1c(C)[nH]c(C)c1S(=O)(=O)NCc1cc(C)ccc1C | 3.32%
79 | Cc1ccc(S(=O)(=O)NNC(=O)CCCCC(=O)NNS(=O)(=O)c2ccc(C)cc2)cc1 | 0.743%
80 | CC(NC(=O)c1ccccc1)C(=O)N/N=C/c1ccccc1 (stereo not shown) | 9.43%
81 | COc1c([N+](=O)[O-])c(=O)n(-c2ccccc2)c2ccccc12 | 6.54%
82 | OCC1CCN(Cc2cn(Cc3ccccc3)nc2-c2cc3ccccc3o2)CC1 | -37.2%
83 | Cc1nn(-c2ccccc2)c(C)c1C(=O)OCC(=O)c1c(N)n(CC(C)C)c(=O)n(C)c1=O | 16.1%
84 | CC1=C(C(=O)Nc2ccccc2)C(c2cccnc2)n2nc(-c3cccnc3)nc2N1 (stereo not shown) | -4.48%
85 | O=c1[nH]c(SCc2cccc(F)c2)nc2ccccc12 | 9.02%
